This is one part of the list.
Columns and labels:
[1] = test system: HSkMC (human skeletal muscle cells); assay: cytotoxicity call (relative viability < 0.9); conditions: 10 µM
[2] = test system: HepG2; assay: cytotoxicity call (relative viability < 0.9); conditions: 10 µM
[3] = test system: S. aureus RN4220; assay: growth inhibition call (relative growth <= 0.2); conditions: 50 µM

Compound	cytotoxicity call [1]	cytotoxicity call [2]	growth inhibition call [3]
CN1CCN(C(=O)C[C@H]2C=C[C@H](NC(=O)Nc3ccccc3F)[C@@H](CO)O2)CC1	inactive	inactive	inactive
COc1ccc(S(=O)(=O)Nc2ccc3c(c2)C(=O)N([C@@H](C)CO)C[C@@H](C)[C@H](CN(C)C(=O)Nc2ccc4c(c2)OCO4)OCCCC[C@@H](C)O3)cc1	inactive	inactive	inactive
C[C@@H]1CCCCO[C@@H](CN(C)Cc2ccc(C(=O)Nc3ccccc3N)cc2)[C@H](C)CN([C@H](C)CO)C(=O)c2cc(N(C)C)ccc2O1	inactive	active	inactive

From the antibiotic and cytotoxicity screens of Wong et al. (2023)
